The assay deals with BDF1 mice, colon carcinoma 38 sc, T/C %. In words: NCI In Vivo Anticancer Drug Screen. Data for tumor model Colon Carcinoma 38 (subcutaneous) in B6D2F1 (BDF1) mice. The following applies: endpoint: median tumor weight (est.), higher = larger tumour. The method, boiled down:
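Compound antitumor activity was assessed in mice carrying transplantable tumors. Survival or tumor size was recorded, and each value is the treated-group measurement divided by that of the vehicle-treated control group.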

[1] abbreviates: dose: 800.0 mg/kg/injection, schedule: Q07DX002 (ip), vehicle: Klucel (hydroxypropylcellulose) (HPC).
Where [2] appears, read: dose: 12.5 mg/kg/injection, schedule: Q07DX002 (ip), vehicle: saline.
Where [3] appears, read: dose: 25.0 mg/kg/injection, schedule: Q07DX002 (ip), vehicle: saline.
[4] abbreviates: dose: 50.0 mg/kg/injection, schedule: Q07DX002 (ip), vehicle: saline.
[5] abbreviates: dose: 100.0 mg/kg/injection, schedule: Q07DX002 (ip), vehicle: saline.
Where [6] appears, read: dose: 25.0 mg/kg/injection, schedule: Q07DX002 (ip), vehicle: saline with Tween-80.
Where [7] appears, read: dose: 50.0 mg/kg/injection, schedule: Q07DX002 (ip), vehicle: saline with Tween-80.
The mark [8] stands for this setting: dose: 200.0 mg/kg/injection, schedule: Q07DX002 (ip), vehicle: saline with Tween-80.
The mark [9] stands for this setting: dose: 400.0 mg/kg/injection, schedule: Q07DX002 (ip), vehicle: saline with Tween-80.
[10] abbreviates: dose: 2.0 mg/kg/injection, schedule: Q07DX002 (ip), vehicle: water.
Where [11] appears, read: dose: 100.0 mg/kg/injection, schedule: Q07DX002 (ip), vehicle: saline with Tween-80.
Setting [12] is: dose: 25.0 mg/kg/injection, schedule: Q07DX002 (ip), vehicle: Klucel (hydroxypropylcellulose) (HPC).

Inconclusive results are not listed. Not every entry of the source has a single result; some have several. Only these are listed. There may be further records. Results that share an entry are repeated measurements in other runs, samples, wells, individuals or studies. *1 amine or outer side, *2 acyl side, *3 side chain or, on linkers, in order; H or OH if unused. Where a SMILES comes first, the peptide text is derived from it. [ ]: non-standard residue; d: D form. The star is where a group is joined. X2 = CCC(=O)CC1CC(C)CC(C(=O)[*:2])N1[*:1]; X1 = CCCCCCCCC(C)C(=O)*; Aib = CC(C)(N)C(=O)O; X3 = CC(CN(C)CCO)N*

Regarding `C[C@]12CCC(=O)C(O)=C1CC[C@@H]1[C@@H]2CC[C@]2(C)C(=O)CC[C@@H]12`, the T/C by setting is: (dose: 400.0 mg/kg/injection, schedule: Q07DX002 (ip), vehicle: Klucel (hydroxypropylcellulose) (HPC)) 83 % of control and 110 % of control; under setting [1], 88 % of control and 156 % of control. As to `CO[C@H]1C[C@](C)(O)Cc2cc3c(c(O)c21)C(=O)c1c(O)cc2c(c1C3=O)O[C@@H]1O[C@@]2(C)[C@H](O)[C@@H](N(C)C)[C@@H]1O`, under “dose: 6.25 mg/kg/injection, schedule: Q07DX002 (ip), vehicle: other”, the T/C was 44 % of control and 73 % of control. Turning to `COc1cccc2c1C(=O)c1c(O)c3c(c(O)c1C2=O)C[C@@](O)(C(C)=O)C[C@@H]3OC1CC(N)C(O)C(C)O1` (stereo partly specified), the T/C (dose: 4.0 mg/kg/injection, schedule: Q07DX003 (ip), vehicle: saline) is 30 % of control and 102 % of control. `OCC1OC(n2cnc3c(NO)nc(NO)nc32)C(O)C1O` (stereo unspecified): the T/C is, setting by setting: (dose: 6.25 mg/kg/injection, schedule: Q07DX002 (ip), vehicle: saline) 70 % of control and 108 % of control; under setting [2], 51 % of control, 70 % of control, 225 % of control; under setting [3], 43 % of control, 62 % of control, 193 % of control; under setting [4], 43 % of control, 75 % of control, 223 % of control; under setting [5], 63 % of control, 84 % of control, 121 % of control; (dose: 200.0 mg/kg/injection, schedule: Q07DX002 (ip), vehicle: saline) 30 % of control, 71 % of control, 120 % of control. `NC(=O)c1csc(C2OC(CO)C(O)C2O)n1` (stereo unspecified): under “dose: 1600.0 mg/kg/injection, schedule: Q07DX002 (ip), vehicle: water”, the T/C was 56 % of control and 88 % of control.

For `O=C(Nc1nncs1)c1cccs1`, the T/C runs as follows: under setting [6], 84 % of control and 117 % of control; under setting [7], 58 % of control and 87 % of control; under setting [8], 73 % of control and 115 % of control; under setting [9], 53 % of control and 100 % of control; (dose: 800.0 mg/kg/injection, schedule: Q07DX002 (ip), vehicle: saline with Tween-80) 55 % of control and 118 % of control. With `Nc1nc([Se])c2ncn(C3OC(CO)C(O)C3O)c2n1` (stereo unspecified), the T/C (dose: 32.0 mg/kg/injection, schedule: Q07DX002 (ip), vehicle: suspension in saline) is 72 % of control and 122 % of control. Take `CCCCN(CCCC)C(Cl)=Nc1ccccc1`: the T/C (dose: 100.0 mg/kg/injection, schedule: Q07DX002 (ip), vehicle: Klucel (hydroxypropylcellulose) (HPC)) is 71 % of control and 102 % of control.

In the case of `C=CCOCC1CO1` (stereo unspecified), the T/C runs as follows: under setting [3], 68 % of control and 110 % of control; under setting [4], 69 % of control and 108 % of control.

Regarding `O=C(O)c1c2c(nc3ccccc13)Cc1ccccc1-2`, the T/C is 121 % of control and 171 % of control (dose: 25.0 mg/kg/injection, schedule: Q07DX002 (ip), vehicle: water); 116 % of control and 159 % of control (dose: 50.0 mg/kg/injection, schedule: Q07DX002 (ip), vehicle: water). On to `C/C(=C\c1ccccc1)[N+](=O)[O-]`, for which the T/C (dose: 3.12 mg/kg/injection, schedule: Q07DX003 (ip), vehicle: Klucel (hydroxypropylcellulose) (HPC)) is 67 % of control and 94 % of control; the T/C (dose: 6.25 mg/kg/injection, schedule: Q07DX003 (ip), vehicle: Klucel (hydroxypropylcellulose) (HPC)) is 68 % of control and 118 % of control; the T/C (dose: 100.0 mg/kg/injection, schedule: Q07DX003 (ip), vehicle: Klucel (hydroxypropylcellulose) (HPC)) was 69 % of control and 108 % of control. With `CC(=O)Nc1ccc(S(=O)(=O)CO)cc1`, the T/C under setting [9] was 76 % of control and 124 % of control.

For the molecule `CCCCCCCCCCCCCCCCCCCCCC(=O)Nc1ccn(C2OC(CO)C(O)C2O)c(=O)n1` (stereo unspecified), under setting [4], the T/C is 48 % of control and 76 % of control. In the case of `C[n+]1c(-c2cccc(OCCOCCOc3cccc(-c4c5cc(N)ccc5c5ccc(N)cc5[n+]4C)c3)c2)c2cc(N)ccc2c2ccc(N)cc21`, the T/C is, setting by setting: under setting [10], 62 % of control and 91 % of control; (dose: 8.0 mg/kg/injection, schedule: Q07DX002 (ip), vehicle: water) 52 % of control, 73 % of control, 122 % of control; (dose: 16.0 mg/kg/injection, schedule: Q07DX002 (ip), vehicle: water) 44 % of control, 64 % of control, 75 % of control. On to `CC1(C)CC23C4COC(=O)C2CCC1C3CC4=O` (stereo unspecified), for which the T/C (dose: 100.0 mg/kg/injection, schedule: Q07DX002 (ip), vehicle: DMSO) is 81 % of control and 118 % of control. On to `NC(=O)c1ccc[n+](Cc2c(Cl)cccc2Cl)c1`, for which the T/C under setting [4] is 61 % of control and 97 % of control. In the case of `Cc1c2cc[n+](C)cc2c(C)c2c1[nH]c1ccc(O)cc12`, the T/C under setting [10] was 78 % of control and 116 % of control.

Consider `CCCCn1cnc2c(=S)nc[nH]c21`, for which the T/C is, setting by setting: under setting [11], 62 % of control and 88 % of control; under setting [8], 35 % of control and 73 % of control. `BrC1CC(Br)c2c1c1c(c3c2C(Br)CC3Br)C(Br)CC1Br` (stereo unspecified): the T/C under setting [7] was 79 % of control and 118 % of control.

As to `O=C(Nc1ccc(N=C=S)cc1Cl)c1cc(Cl)cc(Cl)c1O`, under setting [12], the T/C was 87 % of control and 155 % of control.

For `CCCCCC#CC1OC12CCCCC2` (stereo unspecified), the T/C is, setting by setting: under setting [2], 38 % of control and 85 % of control; under setting [5], 28 % of control and 85 % of control. Take `CCCCCCCCC(C)C(=O)N1CCCC1C(=O)N1C(CC(=O)CC)CC(C)CC1C(=O)NC(C)C(=O)NC(C)(C)C(=O)NC(C)(C)C(=O)NC(C(=O)NC(C)C(=O)NC(C)(C)C(=O)NC(C)(C)C(=O)NC(C)CN(C)CCO)C(C)CC` (stereo unspecified) (X1-P[X2]A[Aib][Aib]IA[Aib][Aib]-X3; configuration not given here): under “dose: 0.62 mg/kg/injection, schedule: Q07DX002 (ip), vehicle: Klucel (hydroxypropylcellulose) (HPC)”, the T/C is 76 % of control and 117 % of control. As to `C=CC(C)(C)n1cc(C2=C(O)C(=O)C(c3cn(C(C)(C)C=C)c4ccccc34)=C(O)C2=O)c2ccccc21`, the T/C was 58 % of control and 112 % of control (dose: 20.0 mg/kg/injection, schedule: Q07DX002 (ip), vehicle: Klucel (hydroxypropylcellulose) (HPC)); 77 % of control and 103 % of control (dose: 40.0 mg/kg/injection, schedule: Q07DX002 (ip), vehicle: Klucel (hydroxypropylcellulose) (HPC)). On to `CCCCCCCCCCS(=O)CC(CO)NC(=O)/C=C/c1c(C)[nH]c(=O)[nH]c1=O` (stereo unspecified), for which the T/C (dose: 0.75 mg/kg/injection, schedule: Q07DX002 (ip), vehicle: distilled water + Tween-80) was 68 % of control and 160 % of control; the T/C (dose: 6.0 mg/kg/injection, schedule: Q07DX002 (ip), vehicle: distilled water + Tween-80) was 111 % of control and 158 % of control; the T/C (dose: 24.0 mg/kg/injection, schedule: Q07DX002 (ip), vehicle: distilled water + Tween-80) is listed as 58 % of control, 101 % of control, 151 % of control. Regarding `CNC(=O)ON(C(C)=O)C(=O)NC`, the T/C under setting [4] was 78 % of control and 120 % of control.

In the case of `CC1C=NNC1=O` (stereo unspecified), the T/C by setting is: under setting [12], 82 % of control and 171 % of control; under setting [1], 47 % of control and 77 % of control. As for `CC(Oc1ccccc1-c1ccccc1)C(=O)N(C)C` (stereo unspecified), the T/C by setting is: under setting [6], 45 % of control and 104 % of control; under setting [7], 52 % of control and 85 % of control. As for `CC(=S)NC(O)C(=O)c1ccccc1` (stereo unspecified), the T/C was 43 % of control and 118 % of control (dose: 12.5 mg/kg/injection, schedule: Q07DX002 (ip), vehicle: saline with Tween-80); 78 % of control and 109 % of control under setting [6]. Regarding `C/C=C/C=C1/OC(C)=C(C(C)=O)C1=O`, the T/C under setting [7] is 48 % of control and 84 % of control; the T/C under setting [11] is 43 % of control, 93 % of control, 116 % of control. `CCOC(=O)c1ccc(NC(=O)Nc2nncs2)cc1`: the T/C was 82 % of control and 120 % of control (dose: 100.0 mg/kg/injection, schedule: Q07DX002 (ip), vehicle: distilled water + Tween-80); 81 % of control and 155 % of control (dose: 200.0 mg/kg/injection, schedule: Q07DX002 (ip), vehicle: distilled water + Tween-80).

(Values after PubChem BioAssay AID212 (DTP/NCI, 2004).)
